{"source": "PubChem BioAssay AID2451", "about": "(National Center for Advancing Translational Sciences (NCATS), 2010)", "note": "Out of some 290,000 compounds screened, about 2,100 (0.72%) were called active. The inconclusive results got no clear call from the source; some entries with a clear call stand among them for comparison. Calls follow the shape of the dose curve; as a rule, active = well fitted inhibition curve with a large enough effect; inconclusive = small, poorly fitted or top-dose-only effect, or effect the other way; inactive = flat fitted curve, though single readings scatter. A potency beside an inconclusive call is a rough fit, not a confirmed value. Potency is read from the fitted curve at half-maximal effect; tags tell the direction and shape of the fitted curve."}
{"molecular_target": "Fructose-bisphosphate aldolase (Giardia intestinalis (strain ATCC 50803 / WB clone C6)) (UniProt A8B2U2)", "sequence (A8B2U2 whole entry, looked up)": "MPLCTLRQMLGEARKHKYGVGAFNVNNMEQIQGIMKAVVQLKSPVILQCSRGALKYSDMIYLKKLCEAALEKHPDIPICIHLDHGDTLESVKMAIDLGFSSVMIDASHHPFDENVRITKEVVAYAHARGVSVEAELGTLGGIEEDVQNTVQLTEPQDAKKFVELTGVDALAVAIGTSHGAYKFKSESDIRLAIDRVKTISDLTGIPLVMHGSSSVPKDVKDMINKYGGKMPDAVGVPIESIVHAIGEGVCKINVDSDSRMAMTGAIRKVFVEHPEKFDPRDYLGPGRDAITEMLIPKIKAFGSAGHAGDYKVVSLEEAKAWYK", "assay": "qHTS Assay for Inhibitors of Fructose-1,6-bisphosphate Aldolase from Giardia Lamblia; also: nearly all actives have a fitted effect of over 55% in size", "conditions": "purified Giardia FBPA; series mostly up to 59.6 µM", "method_in_brief": "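Giardia FBPA (40 nM reagent) was preincubated 10 min at RT with compound (up to 57.5 uM final), then substrate plus GAPDH/TPI/NAD/arsenate coupling system with diaphorase/resazurin was added; resorufin fluorescence (525/598 nm) was read after 20 min.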"}
{"smiles": "Cc1ccc(NC(=S)NNC(=O)c2nnn(-c3ccccc3)c2C)cc1", "Potency": "inconclusive: 17.7 µM [activator, partial curve]"}
{"smiles": "C=CCOc1cccc(CNc2cccc(C(=O)O)c2)c1", "Potency": "inconclusive: 17.7 µM [activator, single point]"}
{"smiles": "Cc1ccc(CNC(=O)CC2Nc3c4ccccc4nc(=S)n3C2=O)cc1", "note": "(configuration not stated)", "Potency": "inconclusive: 17.7 µM [inhibitor, single point]"}
{"smiles": "O=S(=O)(c1ccc(N2CCN(S(=O)(=O)c3ccc4c(c3)OCCO4)CC2)nc1)N1CCCC1", "Potency": "inactive"}
{"smiles": "COc1ccc(OC)c(C(c2c(O)nc(SC)[nH]c2=O)c2c(O)nc(SC)[nH]c2=O)c1", "Potency": "inconclusive: 35.5 µM [inhibitor, single point]"}
{"smiles": "Cc1ccccc1Nc1cc2ccccc2c(=O)[nH]1", "Potency": "inconclusive: 1.26 µM [inhibitor, full curve]"}
{"smiles": "N#Cc1c(-c2ccc(F)cc2)cc(-c2ccccc2)nc1SCC(=O)NCC(=O)O", "Potency": "active: 7.06 µM"}
{"smiles": "CN(C)Cc1c(O)c(Cl)cc2c3c(c(=O)oc12)CCCC3", "Potency": "inconclusive: 15.8 µM [inhibitor, single point]"}
{"smiles": "CC(CN1CCOCC1)OC(=O)c1ccc(Br)cc1", "note": "(configuration not stated)", "Potency": "inactive"}
{"smiles": "O=C(Cc1ccccc1)Nc1ccnn1C1CCN(Cc2nccs2)CC1", "Potency": "inactive"}
{"smiles": "COc1cc2c(cc1O)C[C@H]1NCCc3cc4c(c-2c31)OCO4", "Potency": "inconclusive: 8.89 µM [inhibitor, partial curve]"}
{"smiles": "COCCn1c(SCCN2CCOCC2)nc2c1c(=O)[nH]c(=O)n2C", "Potency": "inconclusive: 31.5 µM [inhibitor, single point]"}
{"smiles": "N#C/C(=N\\Nc1ccc([N+](=O)[O-])cc1)C(N)=S", "Potency": "inconclusive: 7.06 µM [inhibitor, partial curve]"}
{"smiles": "CC(C)Cc1nnc(NC(=O)c2cc([N+](=O)[O-])ccc2N2CCOCC2)s1", "Potency": "inconclusive: 14.1 µM [inhibitor, partial curve]"}
{"smiles": "N#CC(c1ccc(O)cc1)N1CCCCC1", "note": "(configuration not stated)", "Potency": "inconclusive: 9.98 µM [inhibitor, partial curve]"}
{"smiles": "CNCCOc1ccc(Cl)c(Cl)c1", "Potency": "inconclusive: 22.3 µM [inhibitor, single point]"}
{"smiles": "CN(c1ccccc1)S(=O)(=O)c1ccc(C(=O)Nc2nnc(-c3ccco3)o2)cc1", "Potency": "inconclusive: 15.8 µM [inhibitor, single point]"}
{"smiles": "O=C(Nc1nnc(C(F)(F)F)s1)c1cccnc1", "Potency": "inconclusive: 17.7 µM [inhibitor, partial curve]"}
{"smiles": "COC(=O)c1nn(-c2ccc(OC)cc2)c(=O)cc1NN", "Potency": "inconclusive: 14.1 µM [inhibitor, partial curve]"}
{"smiles": "N#Cc1c(N)[nH]c(=S)c(C#N)c1-c1ccccc1", "Potency": "inconclusive: 22.3 µM [inhibitor, single point]"}
{"smiles": "COC1=CC(=O)C(O)=C/C1=C\\C=C\\c1ccccc1", "Potency": "active: 22.3 µM"}
{"smiles": "CN(C1CCCCC1)S(=O)(=O)c1ccc2[nH]c(=O)oc2c1", "Potency": "inconclusive: 17.7 µM [activator, single point]"}
{"smiles": "CN(C)S(=O)(=O)c1cc(NC(=O)CNCCN2CCOCC2)ccc1Cl", "Potency": "inconclusive: 11.2 µM [inhibitor, partial curve]"}
{"smiles": "CCCn1nc(NC(=O)c2cccs2)c2cc3cc(OC)ccc3nc21", "Potency": "inconclusive: 15.8 µM [inhibitor, single point]"}
{"smiles": "Brc1cccc(OCCN2CCc3ccccc3C2)c1", "Potency": "inconclusive: 39.8 µM [inhibitor, single point]"}
{"smiles": "O=C(OCC(=O)N1c2ccccc2Sc2ccccc21)C1CC(=O)N(Cc2ccco2)C1", "note": "(configuration not stated)", "Potency": "inactive"}
{"smiles": "CN(C)c1ccc(CN(C(=O)c2cccs2)C2CCS(=O)(=O)C2)cc1", "note": "(configuration not stated)", "Potency": "inactive"}
{"smiles": "COc1cc2c(cc1OC)C(c1cc3cc(OC)c(OC)cc3[nH]c1=O)N(C(=O)C1CC1)CC2", "note": "(configuration not stated)", "Potency": "inconclusive: 19.9 µM [inhibitor, single point]"}
{"smiles": "Cc1onc(-c2ccccc2)c1C(=O)N/N=C/c1cn(C)c2ccccc12", "Potency": "inconclusive: 15.8 µM [inhibitor, partial curve]"}
{"smiles": "Cn1c(=O)c2[nH]c(-c3cccnc3)nc2n(C)c1=O", "Potency": "inconclusive: 15.8 µM [inhibitor, single point]"}
{"smiles": "CC/C(=N\\NC(=S)Nc1ccccc1)c1c(O)[nH]c(=O)[nH]c1=O", "Potency": "inconclusive: 17.7 µM [inhibitor, single point]"}
{"smiles": "CC(C)CN(CC(C)C)c1ccc(C=C2C(=O)NC(=S)NC2=O)cc1[N+](=O)[O-]", "Potency": "inconclusive: 28.1 µM [inhibitor, single point]"}
{"smiles": "COc1cc(CN2CCN(S(=O)(=O)c3ccc(NC(C)=O)cc3)CC2)cc(OC)c1O", "Potency": "inconclusive: 17.7 µM [inhibitor, partial curve]"}
{"smiles": "CN(CCCCOc1ccc(F)cc1)Cc1ccccc1", "Potency": "inconclusive: 11.2 µM [inhibitor, partial curve]"}
{"smiles": "CN(CC(=O)O)Cc1nc2ccccc2[nH]1", "Potency": "inconclusive: 44.6 µM [inhibitor, single point]"}
{"smiles": "O=[N+]([O-])c1ccccc1-c1ccc(CN2CCN(c3ccccc3)CC2)o1", "Potency": "inconclusive: 25.1 µM [inhibitor, single point]"}
{"smiles": "COc1ccc(N=Nc2nc3cc(Br)c(Br)cc3n2C)c(OC)c1", "Potency": "inconclusive: 15.8 µM [inhibitor, single point]"}
{"smiles": "CCOC(=O)N1CCc2c(sc3c2C(=O)NC(c2ccccc2)N3)C1", "note": "(configuration not stated)", "Potency": "inconclusive: 8.89 µM [inhibitor, partial curve]"}
{"smiles": "Cc1ccc(S(=O)(=O)N2CCN=C2SCc2ccccc2)cc1", "Potency": "inconclusive: 15.8 µM [inhibitor, partial curve]"}
{"smiles": "O=C(Nc1ccc(N2CCCC2)cc1)c1cccc(F)c1", "Potency": "inactive"}
{"smiles": "COc1ccc(C=Nc2cccc3ncccc23)cc1", "Potency": "inconclusive: 19.9 µM [inhibitor, partial curve]"}
{"smiles": "CN(C)C(=O)CNc1n[nH]c(=S)[nH]c1=O", "Potency": "active: 15.8 µM"}
{"smiles": "Cc1cc(NN)nc(Cc2ccccc2)n1", "Potency": "inconclusive: 22.4 µM [inhibitor, single point]"}
{"smiles": "O=C(CN1CCOCC1)c1cccc2ccccc12", "Potency": "inconclusive: 19.9 µM [inhibitor, partial curve]"}
{"smiles": "Cc1c(C(=O)Nc2ccccc2F)sc2ncn(CC(=O)N3CCCCC3)c(=O)c12", "Potency": "inactive"}
{"smiles": "CCOc1c(O)ccc(C2NC(=O)NC(C)=C2C(=O)OC)c1[N+](=O)[O-]", "note": "(configuration not stated)", "Potency": "inconclusive: 3.15 µM [inhibitor, partial curve]"}
{"smiles": "CN(Cc1cc2ccccc2[nH]c1=O)S(=O)(=O)c1ccccc1", "Potency": "inactive"}
{"smiles": "c1ccc(Oc2cccc(OCCn3cncn3)c2)cc1", "Potency": "inconclusive: 22.3 µM [inhibitor, single point]"}
{"smiles": "O=C(Nn1cc(C(=O)Nc2ccccc2F)c2ccccc2c1=O)c1cnccn1", "Potency": "inconclusive: 17.7 µM [inhibitor, single point]"}
{"smiles": "COc1cc(CN2CCCCCC2)c([N+](=O)[O-])cc1OC", "Potency": "inconclusive: 14.1 µM [inhibitor, partial curve]"}
{"smiles": "CCOC(=O)c1c(N2C(=O)Nc3cc(Cl)c(Cl)cc3N2O)sc2c1CCCCC2", "Potency": "inconclusive: 15.8 µM [activator, single point]"}
{"smiles": "COc1ccc(NC(=S)N2c3ccccc3CC2C)cc1OC", "note": "(configuration not stated)", "Potency": "inconclusive: 17.7 µM [inhibitor, single point]"}
{"smiles": "CC(C)(C)c1ccc(S(=O)(=O)N2CCCCC2)cc1", "Potency": "inactive"}
{"smiles": "Cn1cc2cc(NC(N)=S)ccc2n1", "Potency": "inconclusive: 15.8 µM [inhibitor, partial curve]"}
{"smiles": "Cc1cc(C)n(C(C)CNS(=O)(=O)c2ccc(C)c(C)c2)n1", "note": "(configuration not stated)", "Potency": "inactive"}
{"smiles": "CC(C)(C)c1cc[n+](C2=C([O-])c3ccccc3C(=O)/C2=N\\S(=O)(=O)c2ccccc2)cc1", "Potency": "inconclusive: 0.316 µM [inhibitor, full curve]"}
{"smiles": "Nc1nc(Cl)cc(N2CCC(c3cc(-c4ccc(Cl)cc4Cl)n[nH]3)CC2)n1", "Potency": "inactive"}
{"smiles": "O=C(C[n+]1cc[nH]c1)c1ccc(Cl)cc1", "Potency": "inconclusive: 22.4 µM [inhibitor, single point]"}
{"smiles": "CCCCCCc1cc2cc(C(N)=O)c(=N)oc2cc1O", "Potency": "inactive"}
{"smiles": "CCCC[C@@H]1C[C@H]1C(NC(=O)c1cccnc1)c1ccc(Cl)cc1", "note": "(some centres not stated)", "Potency": "inactive"}
{"smiles": "Cc1c(NC(=O)c2cccnc2C(=O)O)cccc1C(=O)O", "Potency": "inconclusive: 6.29 µM [inhibitor, partial curve]"}
{"smiles": "COc1ccccc1CN1CCSCC1", "Potency": "inconclusive: 22.3 µM [inhibitor, partial curve]"}
{"smiles": "COc1ccc(/C=N/NC(=O)c2sc3nc(C)cc(C)c3c2N)cc1", "Potency": "inactive"}
{"smiles": "COC(=O)c1ccc(NC(=O)CSc2nn3c(=O)c(C)nnc3s2)cc1", "Potency": "inconclusive: 2.82 µM [inhibitor, full curve]"}
{"smiles": "CCOC(=O)C1(Cc2ccccc2C)CCCN(C(=O)CCn2nccc2C)C1", "note": "(configuration not stated)", "Potency": "inactive"}
{"smiles": "CCCSc1cc(NCCOC(C)=O)c([N+](=O)[O-])c2nonc12", "Potency": "inconclusive: 0.706 µM [inhibitor, full curve]"}
{"smiles": "CCCCn1c(=N)n(CC(=O)c2ccc([N+](=O)[O-])cc2)c2ccccc21", "Potency": "inconclusive: 15.8 µM [inhibitor, partial curve]"}
{"smiles": "COc1ccc(Oc2ncc3nc(C)c(=O)n(CCC#N)c3n2)cc1", "Potency": "inactive"}
{"smiles": "C[N+](C)(C)CCCNC(=O)c1ccc(/C=N/O)nc1", "Potency": "inconclusive: 35.4 µM [inhibitor, single point]"}
{"smiles": "O=C(c1ccc(Nc2cccc(C(F)(F)F)c2)nc1)N1CCCC1", "Potency": "inactive"}
{"smiles": "CNc1cc(Cl)c2nonc2c1[N+](=O)[O-]", "Potency": "inactive"}
{"smiles": "NC(=S)NNc1c(F)c(F)c(F)c(F)c1F", "Potency": "active: 15.8 µM"}
